According to PubChem BioAssay AID488969 (Vanderbilt High Throughput Screening Facility, 2010):
In all, about 110,000 compounds were measured (“z-score”: median about -0.1, highest 2% from about 2 on). The list shows a part of the results. Activity calls are given as the source filed them.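 How the source made its calls: active means z-score in the third read window above 3 or below -3; inactive means the rest.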

Each compound was assayed against Metabotropic glutamate receptor 8 (Rattus norvegicus) (UniProt P70579) (assay: rat mGluR8 modulators via GIRK flux, primary screen, cell-based, thallium flux, HTS (AID 488969)). Conditions: HEK293 rat mGluR8, GIRK (G protein-gated inwardly rectifying potassium channel) thallium flux, FluoZin2; at 10 µM; stronger effect = higher value; submaximal glutamate (EC20) added with thallium.
UniProt P70579, sequence (P70579 whole entry, looked up): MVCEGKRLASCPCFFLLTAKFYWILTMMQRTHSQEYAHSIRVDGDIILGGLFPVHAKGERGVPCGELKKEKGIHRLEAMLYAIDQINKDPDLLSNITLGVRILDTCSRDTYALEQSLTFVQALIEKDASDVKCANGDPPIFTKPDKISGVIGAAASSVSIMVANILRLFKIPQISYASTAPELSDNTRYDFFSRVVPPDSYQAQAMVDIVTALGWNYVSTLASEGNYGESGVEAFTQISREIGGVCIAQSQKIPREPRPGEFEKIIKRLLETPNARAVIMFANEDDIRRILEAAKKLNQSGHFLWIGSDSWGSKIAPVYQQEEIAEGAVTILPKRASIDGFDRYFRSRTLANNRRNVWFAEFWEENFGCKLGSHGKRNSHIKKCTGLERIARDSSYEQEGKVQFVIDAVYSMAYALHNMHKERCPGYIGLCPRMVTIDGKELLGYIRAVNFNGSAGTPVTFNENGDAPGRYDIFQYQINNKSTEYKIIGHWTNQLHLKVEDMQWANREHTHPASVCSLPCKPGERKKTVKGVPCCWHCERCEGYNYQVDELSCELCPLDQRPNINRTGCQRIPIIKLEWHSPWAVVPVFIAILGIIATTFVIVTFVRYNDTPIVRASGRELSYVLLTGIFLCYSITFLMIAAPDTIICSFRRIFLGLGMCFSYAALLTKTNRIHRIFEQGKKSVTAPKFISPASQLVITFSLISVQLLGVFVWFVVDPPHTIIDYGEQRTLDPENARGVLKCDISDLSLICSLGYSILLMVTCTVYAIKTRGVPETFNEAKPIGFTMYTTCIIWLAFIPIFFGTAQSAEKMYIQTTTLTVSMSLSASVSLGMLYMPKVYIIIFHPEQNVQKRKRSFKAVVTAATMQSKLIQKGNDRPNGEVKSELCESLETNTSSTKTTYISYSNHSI
`O=C(O)c1cccnc1-c1ncccc1C(=O)O` was tested, and the z-score was 0.688.
For `COc1ccc(C(C)N2CC34C=CC(O3)C(C(=O)OCC(C)C)C4C2=O)cc1` (stereo unspecified), the z-score was active: 5.16.
`Cc1onc(-c2ccccc2)c1C(=O)NC(C)C1CCCO1` (stereo unspecified) gave a z-score of -0.159.
For `Cc1ccc(/C=c2\sc3nc(-c4cccnc4)nn3c2=O)cc1`, the z-score was 0.151.
`COC(=O)C1CCN(c2c([N+](=O)[O-])cc(C(F)(F)F)cc2[N+](=O)[O-])CC1` gave a z-score of -0.0994.
For `O=C(CCc1ccccc1)Nc1nnc(-c2cccs2)o1`, the z-score was 0.129.
Compound `COc1ccc([N+](=O)[O-])cc1NC(=O)CSCc1ccccc1` has a z-score of -0.43.
With `O=C(Nc1ccccc1N1CCN(C(=O)c2ccccc2)CC1)c1cc2ccccc2o1` the z-score was 0.308.
`C=CCn1c(SCC(=O)c2ccccc2)nnc1-c1ccc2c(c1)OCO2` was tested, and the z-score was -0.481.
Compound `Cc1cc(C)c(S(=O)(=O)NNC(=O)C2CCN(Cc3ccccc3)CC2)c(C)c1` has a z-score of -0.966.
`Nc1nnnn1/N=C/c1ccccc1OCc1ccccc1` showed a z-score of -0.208.
For `COCCNC(=O)c1ccc(CS(=O)(=O)c2c(Cl)cccc2Cl)o1`, the z-score was 0.757.
Work on `CCCCN(C(=O)Cn1nnc2ccccc21)C(C(=O)NCCOC)c1ccccc1` (stereo unspecified) yielded a z-score of -0.227.
`COc1cc(NC(=O)c2cccs2)c(C(=O)OCC(=O)NC(=O)NCc2ccccc2)cc1OC` showed a z-score of -0.586.
For `O=C(NCC1c2ccccc2CCN1C(=O)CN1CCOCC1)C1CCCCC1` (stereo unspecified), the z-score was -0.979.
Compound `CCc1cc2c(=O)c(Oc3ccccc3)c(C)oc2cc1O` has a z-score of 0.432.
`CCOc1ccc(S(=O)(=O)NCC(=O)N(C)Cc2cccnc2)cc1` gave a z-score of -0.383.
`O=C(Nc1cccc([N+](=O)[O-])c1)C12CC3CC(C1)CC(n1cnc([N+](=O)[O-])n1)(C3)C2` gave a z-score of -0.0887.
Compound `CCOc1c(Cl)cc(/C=N/O)cc1OC` has a z-score of -0.0817.
`O=C(CCCN1C(=O)c2ccccc2C1=O)Nc1ccc(S(=O)(=O)N2CCCCC2)cc1` gave a z-score of -0.235.
`CC(=O)Nc1cccc(NC(=O)CSc2nnc(Cc3cccn3C)n2-c2ccc(C)cc2)c1` showed a z-score of -0.278.
`CCc1ccccc1NC(=O)CN(C)C(=O)CN1C(=O)NC2(CCCCCC2)C1=O` was tested, and the z-score was 0.405.
`CN1/C(=C\C=C2/C(=O)Oc3ccccc3C2=O)C(C)(C)c2ccccc21` showed a z-score of -1.24.
With `Cc1cc(C)n(C(=O)C(C)n2nc([N+](=O)[O-])c(Br)c2C)n1` (stereo unspecified) the z-score was -0.409.
Work on `O=C(O)/C=C1\NC(=O)c2ccccc21` yielded a z-score of 0.246.
`O=C1/C(=C/c2cccnc2)Sc2ccccc21` was tested, and the z-score was -1.04.
`Cc1nc(N)sc1-c1csc(Nc2ccc(Cl)cn2)n1` was tested, and the z-score was 0.139.
`CN(C)c1cccc2c(S(=O)(=O)Nc3ccccn3)cccc12` showed a z-score of 0.146.
For `COc1cc(CC(=O)N/N=C/c2ccccc2)c([N+](=O)[O-])cc1OC`, the z-score was 0.0677.
`O=C(c1ccc2c(c1)C(=O)N(c1ccc(Cl)cc1)C2=O)N1CCN(c2ccccn2)CC1` showed a z-score of -0.0725.
`CCCCNC(=O)CN(c1cccc(F)c1)S(C)(=O)=O` was tested, and the z-score was -0.302.
Compound `O=C1/C(=C/Nc2cccc([N+](=O)[O-])c2)CCc2ccccc21` has a z-score of -0.099.
For `CCOC(=O)Nc1sc(C)c(C)c1C(N)=O`, the z-score was -0.105.
In the case of `O=C(O)c1ccc(COc2cccc(CO)c2)cc1`, the z-score is reported as -0.245.
`CCCNc1nc2c(c(=O)n(C)c(=O)n2C)n1Cc1cccc(C)c1` showed a z-score of -0.0556.
`Cc1ccc(S(=O)(=O)N2CCN(C(=O)C3=COCCO3)CC2)cc1C` showed a z-score of -0.111.
`O=C(NCc1ccccn1)Nc1ccc(Cl)c(Cl)c1` showed a z-score of -0.732.
For `CC1(C)CC(=O)C2=C(C1)N=C1c3ccccc3C(=O)C1C2c1ccc(Cl)cc1` (stereo unspecified), the z-score was -1.67.
`O=C(OCc1ccc([N+](=O)[O-])cc1)C1CCN(S(=O)(=O)c2ccccc2)CC1` gave a z-score of -0.136.
Compound `C=CCSc1nnc(NC(=O)CSc2nc3ccccc3o2)s1` has a z-score of -0.372.
Compound `Cc1ccc(NC(=O)CCC(=O)O)cc1F` has a z-score of 0.48.
With `COCC(=O)N1CCCc2ccccc21` the z-score was 0.0509.
For `Cc1ccc(N2CC(C(=O)Nc3ccc(S(=O)(=O)N4CCCC4)cc3)CC2=O)cc1` (stereo unspecified), the z-score was -0.329.
With `COC(=O)c1ccccc1COn1c(=O)c(C)[n+]([O-])c2ccccc21` the z-score was 0.114.
Compound `CC(=O)OCCCNc1cc(Sc2ccc(Cl)cc2)c2nonc2c1[N+](=O)[O-]` has a z-score of 0.978.
For `COC(=O)c1cc(C(=O)NCCN2C(=O)S/C(=C\c3cccs3)C2=O)cc([N+](=O)[O-])c1`, the z-score was -0.135.
Work on `Cc1ccc(N=Nc2ccc(O)c3ncccc23)cc1` yielded a z-score of 2.05.
`COCCOC(=O)c1c(NC(=O)CN2CCCc3ccccc32)sc(C(N)=O)c1C` gave a z-score of -0.382.
For `CCCC(C)NC1=NCCCCC1` (stereo unspecified), the z-score was 0.206.
In the case of `CCCCC(CC)C1OCC(C[N+]2(C)CCOCC2)O1` (stereo unspecified), the z-score is reported as -0.121.
With `COc1ccccc1NS(=O)(=O)c1ccc(C)c(C(=O)NCC2CCCO2)c1` (stereo unspecified) the z-score was 0.0452.
`CCOC(=O)c1cnc2ccc(F)cc2c1Nc1ccc2c(c1)OCCO2` gave a z-score of -0.574.
`Cc1ccc(Oc2cc(NC(=O)CCCn3nc([N+](=O)[O-])cc3C)cc([N+](=O)[O-])c2)cc1` showed a z-score of -0.627.
Compound `Cc1cccc(NC(=O)CCN2CC(C)OC(C)C2)c1` (stereo unspecified) has a z-score of 0.142.
Work on `NC(=O)c1cn(-c2ccccc2)nc1-c1cc2ccccc2oc1=O` yielded a z-score of -0.199.
With `CSc1nc(-c2ccccc2)nn1C(=O)c1ccccc1` the z-score was -0.107.
Work on `CCOC(=O)C1=C(C)Nc2ccccc2N=C1NC(=O)C(CC)c1ccccc1` (stereo unspecified) yielded a z-score of -0.283.
`CCOC(=O)C1C(=O)C=C(c2ccc(C)cc2)CC1c1ccc([N+](=O)[O-])cc1` (stereo unspecified) gave a z-score of -0.411.
`CCCCCn1c(=NC(=O)c2ccco2)c(C(=O)OCC)cc2c(=O)n3ccccc3nc21` showed a z-score of -0.363.
For `CCCC(=O)NCCc1ccc(F)cc1`, the z-score was -0.00833.
Compound `COc1ccc(Cn2c(C3CC3)nc3ccc(NC(=O)C4CC4)cc3c2=O)cc1` has a z-score of 0.333.
Compound `Cc1nnc2n(Cc3ccccc3)c(=O)c3c4c(sc3n12)COC(C)(C)C4` has a z-score of 0.198.
Compound `CC(=O)Nc1c2c(nn1-c1ccc(C)cc1C)CSC2` has a z-score of -0.841.
`CC(C)(C)c1ccc(N2C(=O)Cc3c2nc(N)c(C#N)c3N)cc1` was tested, and the z-score was 0.21.
`O=C(O)C1CC=CCC1C(=O)Nc1ccccc1C(=O)N1CCN(c2ccccc2)CC1` (stereo unspecified) was tested, and the z-score was -0.11.
In the case of `COc1ccc2[nH]c(=O)c(CN(C(=O)c3cccnc3)c3ccc(C)cc3)cc2c1`, the z-score is reported as -0.109.
In the case of `CCCCN(CC)Cc1ccc(CNC(=O)Nc2ccc(OC)cc2OC)o1`, the z-score is reported as -0.146.
With `Cc1nccn1Cc1cccc2ccccc12` the z-score was 0.476.
With `Cn1c(=O)oc2cc(S(=O)(=O)NCc3ccco3)ccc21` the z-score was 0.202.
Compound `Cn1c2c(c(=O)n(C)c1=O)CN(Cc1ccco1)CN2` has a z-score of -0.26.
With `O=c1c2cnn(-c3ccc(F)cc3)c2ncn1Cc1ccccc1` the z-score was -1.18.
For `COc1ccccc1-c1nnc(SCC(=O)Nc2c(Cl)cccc2Cl)o1`, the z-score was 0.304.
Work on `CC(=O)Nc1ccc2c(c1)nc1n2CCSC1` yielded a z-score of -0.406.
Compound `C/C(NC(=O)c1ccccc1)=C1/C(=O)CC2C1C2(C)C` (stereo unspecified) has a z-score of -0.669.
Work on `Cc1cc(C)nc(SCCC(=O)Nc2cccc3ccccc23)n1` yielded a z-score of -0.213.
With `Cc1ccc2oc(-c3ccc(NC(=O)CC(C)C)cc3)nc2c1` the z-score was -0.144.
With `O=C(Nc1cccnc1)c1scc2c1OCCO2` the z-score was -0.573.
With `CC(C)CCNC(=O)C(=O)NCCC1=CCCCC1` the z-score was 0.86.
`CC1Cc2nc(SCC(=O)N3CCN(c4ccccc4)CC3)n(C)c(=O)c2S1` (stereo unspecified) gave a z-score of -0.938.
`CS(=O)(=O)N(CC(=O)N1CCCCC1)c1ccc2c(c1)OCO2` was tested, and the z-score was 0.403.
Compound `Cc1csc(SCC(=O)Nc2ncc(Cl)c(C)c2Cl)n1` has a z-score of 0.185.
`COc1ccc(CC(=S)N2CCOCC2)cc1OC` gave a z-score of -0.316.
For `Cc1c(CCO)c(=O)[nH]n1C(=O)c1c(F)cccc1F`, the z-score was -0.0409.
In the case of `Cc1nnc(N2C(=O)c3cccc4cccc(c34)C2=O)s1`, the z-score is reported as -0.355.
Compound `Cc1ccc(C)c(N2C(=O)c3cc(N4CCOCC4)c([N+](=O)[O-])cc3C2=O)c1` has a z-score of -0.109.
In the case of `O=C1c2cccnc2C(=O)N1c1cccc(-c2nc3ccccc3o2)c1`, the z-score is reported as -1.17.
`Cc1nn(Cc2ccccc2Cl)c(C)c1NC(=O)CCCn1nc(C)c([N+](=O)[O-])c1C` gave a z-score of -0.213.
Work on `CCOC(=O)c1c(C)[nH]c(N=Nc2ccccc2)c1C` yielded a z-score of 0.322.
Compound `Cc1c(N=C/C=C2/N(C)c3ccccc3C2(C)C)c(=O)n(-c2ccccc2)n1C` has a z-score of 0.846.
`N#Cc1c(N2C(=O)Nc3ccccc3N2O)sc2c1CCCCCC2` showed a z-score of -0.322.
`Cc1cccc(C)c1NC(=O)CNc1ccccc1` showed a z-score of 0.211.
Compound `Cc1ccc(/C=C2\OC(=O)c3ccccc32)cc1` has a z-score of 0.353.
In the case of `COc1ccc2cc(S(=O)(=O)N3CCN(C)CC3)ccc2c1`, the z-score is reported as -0.125.
With `c1ccc(CSc2ncccn2)cc1` the z-score was 0.193.
With `Cn1c(=O)c2c(nc(N3CCCCC3)n2C)n(C)c1=O` the z-score was -0.4.
`CCCc1nnc(NC(=O)CCC(=O)N2CCN(CCn3c(C)ccc3C)CC2)s1` was tested, and the z-score was -1.08.
`O=C(COC(=O)c1cccc(NS(=O)(=O)/C=C/c2ccccc2)c1)Nc1ccccc1OC(F)F` showed a z-score of -0.425.
`CCNC(=O)COc1ccc(C=O)cc1OC` was tested, and the z-score was 1.02.
For `CN(Cc1ccccc1)c1ccc(C(=O)O)cc1[N+](=O)[O-]`, the z-score was -0.39.
`Cc1ccc(NC(=O)c2cnccn2)cc1S(=O)(=O)N(C)C` showed a z-score of -0.077.
`COc1ccc(C2CC(=O)C=C(NNS(=O)(=O)c3ccc(C)cc3)C2)cc1` (stereo unspecified) showed a z-score of -0.0728.
`Cc1ccc(-c2nc(CSCC(=O)N3CCCC3)c(C)o2)cc1` gave a z-score of -0.311.
Work on `Cc1ccc(OCCCC(=O)N2CCOCC2)c(C)c1` yielded a z-score of -0.152.
With `N=C1/C(=C/c2cccn2-c2ccc([N+](=O)[O-])cc2)C(=O)N=C2SC=CN12` the z-score was -0.214.
In the case of `CCOC(=O)C1=C(N)OC2=C(C(=O)CCC2)C1c1ccco1` (stereo unspecified), the z-score is reported as -0.115.
In the case of `O=C(NCc1ccccn1)c1ccc(Cn2cc(Br)cn2)o1`, the z-score is reported as -0.188.
`COC(=O)c1c(NC(=O)COC(=O)CNC(=O)c2ccco2)sc(C)c1C` showed a z-score of -0.123.
With `CC(=Nc1cccc(O)c1)c1sc2ccccc2c1O` the z-score was -0.237.
Work on `COCc1cc(C)nc(OCC(=O)N/N=C/c2ccc(-c3cccc([N+](=O)[O-])c3)o2)c1C#N` yielded a z-score of 0.0169.
With `Cc1nn(-c2ccccc2)c(Cl)c1C(=O)Nc1nnc(C2CCCCC2)s1` the z-score was -0.261.
With `O=C(CN1C(=O)/C(=C/c2ccccc2F)Oc2ccccc21)N1CCN(c2ccccn2)CC1` the z-score was active: 6.44.
